Consider 63 compounds from publication PMC6919601, “Identification of Plasmodium dipeptidyl aminopeptidase allosteric inhibitors by high throughput screening” (PLoS ONE, 2019).

Out of some 110,000 compounds screened, about 230 (0.21%) showed an effect of 50% or more. Some of the results follow.
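Also: 30 min substrate incubation versus DMSO and 10 µM JCP410 controls.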

Chain of DPAP1 (Q8IIJ9 whole entry, looked up): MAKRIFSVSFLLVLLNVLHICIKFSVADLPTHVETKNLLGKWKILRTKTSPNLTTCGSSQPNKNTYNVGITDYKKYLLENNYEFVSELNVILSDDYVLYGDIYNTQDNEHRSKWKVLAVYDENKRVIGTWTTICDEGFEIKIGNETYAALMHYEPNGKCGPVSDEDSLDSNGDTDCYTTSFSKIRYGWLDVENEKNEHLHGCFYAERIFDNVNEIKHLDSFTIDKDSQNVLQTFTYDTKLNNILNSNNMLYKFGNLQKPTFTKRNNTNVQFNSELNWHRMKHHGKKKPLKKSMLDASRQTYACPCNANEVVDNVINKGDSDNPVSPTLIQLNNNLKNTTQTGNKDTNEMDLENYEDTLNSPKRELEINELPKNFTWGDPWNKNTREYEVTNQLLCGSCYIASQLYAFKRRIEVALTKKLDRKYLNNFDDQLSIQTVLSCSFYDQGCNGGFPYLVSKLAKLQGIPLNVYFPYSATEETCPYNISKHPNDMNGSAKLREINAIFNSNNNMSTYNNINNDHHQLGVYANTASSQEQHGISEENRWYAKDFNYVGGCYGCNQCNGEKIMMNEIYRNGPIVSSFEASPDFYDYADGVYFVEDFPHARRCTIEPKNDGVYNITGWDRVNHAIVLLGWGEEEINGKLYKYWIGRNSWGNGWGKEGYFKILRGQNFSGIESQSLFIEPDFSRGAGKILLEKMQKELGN

This assay concerns the target DPAP1 (Plasmodium falciparum, UniProt Q8IIJ9). The assay can be described thus: primary screen, percent inhibition; read by cleavage of a fluorogenic dipeptide substrate; higher = more effect of the substance. More on the design: species or system P. falciparum D10 trophozoite lysates; single well.
Consider `CCc1ccccc1NC(=O)C(C)SCc1ccccc1` (stereo not drawn), for which the “% Inhibition @ 10 uM” value is listed as 0.851%.
For the compound `CCOC(=O)C1=C(c2ccccc2)Nc2ncnn2C1c1ccc(OC)cc1` (stereo not drawn), the “% Inhibition @ 10 uM” value is 0.487%.
The result for `Cc1ccc(NC(=O)C(NC(=O)C2CCCCC2)C(C)C)nc1` (stereo not drawn) reads -6.5%.
Then `N#CCNC(=O)[C@@H](COCc1ccccc1)NC(=O)OCc1ccccc1`, with 0.079%; and `CCc1ccc(CNCc2c(C(=O)O)n(Cc3ccccc3C)c3ccccc23)cc1`, with -3.53%.
The result for `CN(C)c1ccc(C(=O)c2ccc(O)cc2O)cc1` reads 4.44%; that for `O=C(O)c1ccc(S(=O)(=O)c2cc(C(=O)O)ccc2C(=O)O)cc1`, 0.937%.
Take `Cc1nn(CC(=O)NC(C)c2ccccc2)c(=O)c2cc3sccc3n12` (stereo not drawn): the “% Inhibition @ 10 uM” value was determined as 3.4%.
As for `Cc1ccc(C2=NN(CC(=O)NCCN(C)C)C(=O)CC2)cc1`, the “% Inhibition @ 10 uM” value amounted to 3.79%.
Take `Cc1ccc(S(=O)(=O)N(CC(=O)N2CCC(C)CC2)c2cc(C)cc(C)c2)cc1`: the “% Inhibition @ 10 uM” value turned out to be 1.62%.
For the compound `CC1CC(C)(C)N(C(=S)Nc2ccccc2)N1c1ccccc1` (stereo not drawn), the “% Inhibition @ 10 uM” value is -0.744%.
As for `CC(=O)N1CCC2(CC1)Oc1ccccc1C(=O)N2CC(=O)NC1CCCCC1`, the “% Inhibition @ 10 uM” value is reported as -1.6%.
Then `COc1cc(N2CCCC2)c(OC)cc1/C=C1\NC(=O)N(CC(=O)Nc2ccccc2)C1=O`, with 9.02%; and `O=C(Nc1sc2c(c1C(=O)NCC1CCCO1)CCCC2)c1ccc(Br)cc1` (stereo not drawn), with -1.24%; and `COc1ccccc1-c1nnc2sc(COc3ccccc3Cl)nn12`, with 2.89%.
The result for `O=C(c1ccccc1Cl)N1N=C(c2ccncc2)CC1(O)C(F)(F)F` (stereo not drawn) reads 3.01%; that for `Cc1[nH]c2ccccc2c1SCCNC(=O)c1cccc(Br)c1`, 4.02%; that for `CCN(CC)S(=O)(=O)c1cccc(C(=O)Nc2cccc(O)c2)c1`, 1.64%.
The result for `COc1cc(CN2CCN(Cc3ccccc3Br)CC2)cc(OC)c1OC` reads -5.26%; that for `Cc1cccn2c(=O)c3cc(C(=O)N4CCCCC4)c(=N)n(CCN4CCOCC4)c3nc12`, 0.279%; that for `Cc1nc2c(-c3ccccc3)c(C)nn2c(C)c1CC(=O)NCCC1=CCCCC1`, 4.14%.
Turning to `CCOC(=O)c1c(NC(=O)c2cc(-c3cccc(O)c3)on2)sc(C(C)=O)c1C`, the “% Inhibition @ 10 uM” value was -7.85%.
Then `c1cncc(C2OCC3(CO2)COC(c2cccnc2)OC3)c1` (stereo not drawn), with -0.413%.
The result for `CCN1C(=O)/C(=C\c2ccc(OCC(N)=O)c(Br)c2)S/C1=N/c1ccccc1` reads -6.38%; that for `Cc1ccc(NCc2nc3ccccc3n2C)cc1C`, -7.96%; that for `CCc1ccc2occ(CC(=O)Nc3sc4c(c3C(=O)OC)CCCC4)c2c1`, 4.18%.
Then `N#CC1=C(N)OC2=C(C(=O)CC(c3ccco3)C2)C12C(=O)Nc1ccc(Br)cc12` (stereo not drawn), with 0.446%.
In the case of `Cc1ccc(/C=C/C(=O)Nc2ncc(Cc3ccc(F)cc3)s2)o1`, the “% Inhibition @ 10 uM” value worked out at 7.76%.
The result for `CC(=O)Nc1ccc(S(=O)(=O)N2CCc3ccccc32)cc1` reads -2.42%.
The result for `CN(C)c1cc(N)c2c(n1)CCCC2` reads 3.05%.
Turning to `O=C(CCCc1nnc2n3nc(-c4ccccc4)nc3c3ccccc3n12)NC1CCCCC1`, the “% Inhibition @ 10 uM” value is -6.52%.
The result for `c1ccc2c(c1)[nH]c1cncnc12` reads -1.22%.
On to `Cc1ccc(-n2nc3c(=O)n(CCCC(=O)NCc4ccccc4Cl)nc(C)c3c2C)cc1`, for which the “% Inhibition @ 10 uM” value was -2.68%.
The result for `CCn1ncc(C2=NOC(C(=O)N3CCC4(CC3)OCCO4)C2)c1C` (stereo not drawn) reads -10.5%.
Consider `CCCC(=O)Nc1ccc(Cl)c(NC(=O)c2ccc(C)cc2)c1`, for which the “% Inhibition @ 10 uM” value was -3.69%.
As to `O=C(O)CCCCCC1CCNC(=O)N1` (stereo not drawn), the “% Inhibition @ 10 uM” value is on record as 3%.
Then `Cc1ccc(N(CC(=O)N2CCN(C)CC2)S(=O)(=O)c2ccc(C)cc2)cc1`, with -3.28%; and `Cc1ccccc1C1=NC(C(F)(F)F)(C(F)(F)F)N=C2C=CC=CN21`, with -3.76%; and `c1ccc(-n2ncnc2-c2ccc3c(c2)OCO3)cc1`, with -5.44%.
Turning to `CN(C)c1ccc(/C=C/c2ccnc3ccccc23)cc1`, the “% Inhibition @ 10 uM” value is reported as 3.1%.
Regarding `Cc1ccc2onc(CNC(=O)NCCN3CCc4ccccc4C3)c2c1`, the “% Inhibition @ 10 uM” value is reported as 4.29%.
For the compound `CN1C(=O)CN=C(c2ccccc2)c2cc(Br)ccc21`, the “% Inhibition @ 10 uM” value was -0.766%.
Regarding `CC1CCCN(CCCNC(=O)c2cc3ccc4cccnc4c3[nH]2)C1` (stereo not drawn), the “% Inhibition @ 10 uM” value is listed as -0.349%.
For `CCCn1c2ccccc2c2cnn(CC(=O)Nc3nc4ccc(OCC)cc4s3)c(=O)c21`, the “% Inhibition @ 10 uM” value is given as 0.958%.
As to `CCCN1CCN(C(=O)c2cccc3c2C(=O)N(C2CCCCC2)C3)CC1`, the “% Inhibition @ 10 uM” value is -0.499%.
Turning to `Cc1ccccc1Nc1nc(Cl)nc(NC(C)(C)C)n1`, the “% Inhibition @ 10 uM” value was -3.38%.
The result for `CCc1ccc(-c2cn3nc(N4CCC(C(=O)NCc5cccc(Cl)c5)CC4)sc3n2)cc1` reads 0.0882%; that for `CCS(=O)(=O)N1CCC2(CC1)OC(=O)C(C)=C2C(=O)NCc1ccc(F)cc1`, -5.14%.
As to `CCCOc1ccc(C2SCC(=O)Nc3c2c(O)nn3C(C)C)cc1` (stereo not drawn), the “% Inhibition @ 10 uM” value is 1.25%.
For `Clc1nc(NCCN2CCOCC2)nc(N2CCCCC2)n1`, the “% Inhibition @ 10 uM” value turned out to be 2.41%.
Then `COc1cccc(/C=C(\C#N)c2nc(-c3ccc(C)cc3)cs2)c1`, with -3.04%; and `CC(C)CNC(=O)C1CC(=O)N(c2ccccc2)C1` (stereo not drawn), with -0.622%; and `COc1cccc2c1cc1c(=O)n(CC(=O)N3CCN(C(=O)c4ccco4)CC3)nc(C)n12`, with 1.68%.
Then `CCOc1cc(C(=O)Nc2nnc(COC)s2)cc(OCC)c1OCC`, with -3.33%; and `O=C(Nc1cccc(C(F)(F)F)c1)c1ccc(Cl)c([N+](=O)[O-])c1`, with -0.197%; and `CC12CCCc3c(-c4nc[nH]n4)c(-c4ccccc4)c(=O)n(c31)-c1ccccc12` (stereo not drawn), with 4.41%.
Then `COCCCNC(=O)/C(C#N)=C/c1c(Oc2ccccc2C)nc2c(C)cccn2c1=O`, with -5.1%; and `CCCOc1ccc(/C=C2\N=C(c3ccc(Cl)cc3)OC2=O)cc1OC`, with 3.04%; and `CCOC=C1C(=O)c2ccccc2C1=O`, with -0.289%.
As to `O=C(NCc1ccco1)c1c(O)nc2ccccc2c1O`, the “% Inhibition @ 10 uM” value was 4.45%.
Then `O=C(NC(Cc1c[nH]c2ccccc12)C(=O)O)c1ccco1` (stereo not drawn), with 3.16%; and `Cc1cccc(-c2noc(CNC(=O)COc3cccc(C)c3C)n2)c1`, with -2.99%.
As for `CC(C)c1ccc(CNCCCSc2nnnn2C)cc1`, the “% Inhibition @ 10 uM” value is -8.57%.
